The values below come from patent publication US20090258005A1 (TRUBION PHARMACEUTICALS, published 2009).

Assay [1] deals with T1, CD20 on Ramos cells.
T1 construct: also called Ramos (Her2-/CD20+ control)
T1 chain: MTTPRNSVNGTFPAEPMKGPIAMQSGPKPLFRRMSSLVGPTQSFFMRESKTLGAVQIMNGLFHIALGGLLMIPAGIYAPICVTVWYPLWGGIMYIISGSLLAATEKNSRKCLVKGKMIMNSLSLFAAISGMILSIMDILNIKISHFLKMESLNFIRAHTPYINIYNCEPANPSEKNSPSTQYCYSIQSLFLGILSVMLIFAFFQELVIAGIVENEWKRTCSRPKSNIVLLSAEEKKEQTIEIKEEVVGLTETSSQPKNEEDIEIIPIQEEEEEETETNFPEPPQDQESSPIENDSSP
Nature of the assay: flow cytometry (X geo mean FL1-H), Ramos cells. Background: Flow cytometry measures light scatter and fluorescence of single cells or particles in a stream.

Assay [2] addresses T2, Her008P, full-length extracellular domain (ECD) of Her2 expressed with a mIgG2a Fc tail (human; murine, UniProt P04626 fragment).
T2 construct: also called SIIS; SIIS (Dimer); not shown: murine IgG2a Fc tail
Nature of the assay: BIACORE T100, binder captured by anti-human Fc, Her2 protein as analyte, 25 C. On the technique in general: SPR reads the build-up and loss of mass on a sensor chip optically.

The target of assay [3] is T3, Her018P, Her2 ECD with a deletion in the CR2 (Domain IV) region expressed with a mIgG2a Fc tail (human; murine, UniProt P04626 fragment).
T3 construct: Shares the name HER018 with the trastuzumab SMIP; also called 1.8 (Dimer); dimeric HER018; not shown: murine IgG2a Fc tail (C-terminal dimerising carrier) and any junction residues
The assay is described as above.

Broadly, the Kd is the concentration at which binding is half-saturated.

B1: HER067 SMIP (Fc fusion)
chain: QVQLQQSGAEVKKPGSSVKVSCKASGGTISNYAISWVRLAPGQGLEWMGSIVPLHGTTNFAQKFQGRVTITADESTSTSYMEVNVLTYEDTAMYYCASLNWGYWGRGTLVTVSSGGGGSGGGGSGGGGSALNFMLTQPHSVSESPGKTVTISCTGSSGSIASNYVQWYQQRPDSAPTTVIYEDNRRSSGVPDRFSGSIDSSSNSASLSISGLKTEDEADYYCQSYDSSGHVVFGGGTKLTVLGDVR[human IgG1 Fc with changes not shown]
notes: HER067 is produced in CHO cells; also called Her033/Her067
On to B1, for which the binding result in assay [1] is “no binding (tested: 200 nM)”.

B2: HER030 SMIP (Fc fusion)
chain: EVQLVQSGGGLVRPGGSLRLSCAASGFSFSDYYMTWIRQIPGKGLEWVAVIWNDGSDRYYADSVKGRFTISRDNSKNTLFLQMSSLRDEDTALYYCVRGGPTASSGFDYWGRGTLVTVSSGGGGSGGGGSGGGGSSELTQPASVSGSPGQSITISCTGTSSDVGGYNYVSWYLQHPGKAPKLMIYEGSKRPSGVSNRFSGSKSGNTASLTISGLQAEDEADYYCSSYTTRSTRVFGGGTKLTVLGDVR[human IgG1 Fc with changes not shown]
notes: SMIP: VH - linker - VL - SCCP hinge - Fc
For B2, the Kd amounted to 35.6 nM in assay [2] and 27.6 nM in assay [3].
